Test results taken from PubChem BioAssay AID1159614 (National Center for Advancing Translational Sciences (NCATS), 2016).
In all, about 45,000 compounds went through this assay and about 65 (0.1%) were called active. The call rests on the fitted dose curve; in most records, active means well fitted activation curve with a large enough effect; inconclusive means small, poorly fitted or top-dose-only effect; inactive means no such curve, though single readings can be large or run the other way. This is one part of the list.

target: Galactocerebrosidase (Homo sapiens) (UniProt P54803); assay: A Novel Cell-Based Assay to Identify Small Molecules for B -Galactocerebrosidase; conditions: 145M-Twi-hGALC-G270D cells (Twitcher mouse brain line with human GALC G270D), HMU-beta-Gal fluorescence, 48 h; activation: at the top concentration; further: 0% is about no effect; nearly all actives have a fitted effect of over 65% in size
Summary of the method: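 Live 145M-Twi cells (Twitcher mouse brain-derived, GALC-null) stably expressing human GALC-G270D, with a wild-type GALC line, were compound-treated. Residual GALC activity was then read as fluorescence from 0.1 mM final HMU-β-gal at pH 5.2; higher signal means activation.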

Row | Compound | activation
1 | CCOc1ccccc1CN(CCc1ccc2c(c1)OCO2)Cc1ccc(CC)cc1 | inactive: -11.8%
2 | COC(C)(C)CCCC(C)C/C=C/C(C)=C/C(=O)OC(C)C (stereo not drawn) | inactive: -14.4%
3 | CC(C)(C)NC[C@H](O)c1ccc(O)cc1Cl | inactive: -11.6%
4 | CCN(CC)C(=O)c1ccc(NC(=O)Cn2nc(-c3ccc(C)cc3)c3ccccc3c2=O)cc1 | inactive: -16.1%
5 | Cc1ccc(Cn2cccc(C(=O)Nc3nnc(C)s3)c2=O)cc1 | inactive: -7.84%
6 | Cc1ccc(Cl)c2sc(NC(=O)c3ccc(S(=O)(=O)N4CCCC4)cc3)nc12 | inactive: -30.7%
7 | COc1cc(OC)cc(C(=O)Nc2nc(-c3nnn(-c4ccc(C)cc4)c3C)ns2)c1 | inactive: -36.4%
8 | CCOC(=O)c1ccc(NC(=O)c2cccn(Cc3ccc(C)cc3)c2=O)cc1 | inactive: -10.9%
9 | CC(C)CC(N(C)C)C1(c2ccc(Cl)cc2)CCC1 (stereo not drawn) | inactive: -15.5%
10 | Cc1ccc(N=CN(C)C=Nc2ccc(C)cc2C)c(C)c1 | inactive: -9.16%
11 | O=[N+]([O-])c1c(Cl)c(Cl)cc(Cl)c1Cl | inactive: -13.6% [at 114 µM]
12 | CC(C)[N+](C)(CCC(C(N)=O)(c1ccccc1)c1ccccc1)C(C)C | inactive: -27.2%
13 | C#C[C@]1(O)CC[C@H]2[C@@H]3CCC4=CC(=O)CC[C@]4(C)[C@H]3CC[C@@]21C | inactive: -3.9%
14 | O=C(O)COc1nc(Cl)c(Cl)cc1Cl | inactive: -7.75% [at 114 µM]
15 | Cc1ccc(NC(=O)N(Cc2ccc3c(c2)OCO3)C2CCN(Cc3ccccc3)CC2)cc1Cl | inactive: -28.6%
16 | COP(=S)(OC)Oc1ccc(SC)c(C)c1 | inactive: -9.06%
17 | O=c1[nH]c2ccccc2n1CCCN1CCC(n2c(=O)[nH]c3cc(Cl)ccc32)CC1 | inactive: -13.8%
18 | C[C@H]1[C@@H]2Cc3ccc(O)cc3[C@@]1(C)CCN2C | inactive: -2.67% [at 288 µM]
19 | CCO[C@H]1O[C@@H]2OC3(C)CC[C@H]4[C@H](C)CC[C@@H]([C@H]1C)[C@@]24OO3 | inactive: -6.76%
20 | CCN[C@@H](C)Cc1ccccc1 | inactive: -4.18% [at 129 µM]
21 | N#Cc1cc2c(nc1SCC(=O)Nc1ccc(F)c(Cl)c1)C1CCN2CC1 | inactive: -8.68%
22 | COc1cc(CC(C)N)cc2c1OCO2 (stereo not drawn) | inactive: -4.15% [at 129 µM]
23 | O=C(Nc1ccc(Br)cc1C(=O)c1ccccc1Cl)c1ccccc1F | inactive: -13.4%

Row | Compound | activation
24 | COc1ccc(CCNCc2ccc3c(c2)n(C)c(=O)n3C)cc1 | inactive: -10.2%
25 | O=C1CC(c2ccc(F)cc2)c2c(c3ccccc3oc2=O)O1 (stereo not drawn) | inactive: -10.7%
26 | CC(Cc1ccc(O)cc1)NCC(O)c1cc(O)cc(O)c1 (stereo not drawn) | inactive: -5.43%
27 | CCOc1ccc(NC(=O)c2cccn(Cc3cccc(Cl)c3)c2=O)cc1 | inactive: -26.1%
28 | COc1ccc(NC(=O)CCc2nc(C3=CCN(Cc4cccc(Cl)c4)CC3)no2)cc1OC | inactive: -29.9%
29 | CS(=O)(=O)c1ccc(C(=O)C2C(=O)CCCC2=O)c([N+](=O)[O-])c1 | inactive: -4.5% [at 114 µM]
30 | N#Cc1cccc(NC(=O)c2sc3nc4c(cc3c2N)N2CCC4CC2)c1 | inactive: 1.03%
31 | Cc1oc(-c2ccccc2Cl)nc1CN1C(=O)CN=C(c2ccccc2)c2cc(Cl)ccc21 | inactive: 6.42%
32 | C=CC[C@]1(O)CC[C@H]2[C@@H]3CCC4=CC(=O)CCC4=C3C=C[C@@]21C | inactive: -20.7%
33 | Cc1ccc(-n2nc(C)c3c2NC(=O)CSC3c2ccc(O)cc2)cc1Cl (stereo not drawn) | inactive: 13.3%
34 | O=c1c2ccccc2nc(/C=C/c2ccccc2O)n1-c1ccc(Br)cc1 | inactive: -7.42%
35 | CCCC12CN3CC(C)(CN(C1)C3c1ccccn1)C2=O (stereo not drawn) | inactive: -4.75%
36 | CCOc1ccc2nc(NC(=O)c3cccn(Cc4ccc(C)cc4)c3=O)sc2c1 | inactive: -8.99%
37 | O=C1CN=C(c2ccccc2)c2cc([N+](=O)[O-])ccc2N1 | inactive: -7.25%
38 | Cc1ccc(S(=O)(=O)N[C@@H](CCCCN)C(=O)CCl)cc1 | inactive: -17.2%
39 | O=C(Nc1ccc(F)c(Cl)c1)N(Cc1ccc2c(c1)OCO2)C1CCN(Cc2ccccc2)CC1 | inactive: -12.1%
40 | CN1C(=O)COc2c(C(=O)NC3CN4CCC3CC4)cc(Cl)cc21 (stereo not drawn) | inactive: -17.3%
41 | Nc1c(C(=O)Nc2ccc(F)c(Cl)c2)sc2nc3c(cc12)N1CCC3CC1 | inactive: -0.916%
42 | O=C(Nc1ccc2c(c1)OCO2)c1cccn(Cc2ccccc2)c1=O | inactive: -18%
43 | CCOC(=O)C1(c2ccccc2)CCN(CCc2ccc(N)cc2)CC1 | inactive: -17.1%
44 | O=C(Nc1ccon1)c1cccn(Cc2cccc([N+](=O)[O-])c2)c1=O | inactive: -4.98%
45 | Nc1ccc(N)cc1 | inactive: -16.3%
46 | O=C(Nc1ccccc1)N(Cc1ccc2c(c1)OCO2)C1CCN(Cc2ccccc2)CC1 | inactive: -9.7%

Row | Compound | activation
47 | Cc1cccc(C)c1NC1=NCCCS1 | inactive: -11%
48 | CCc1ccc(C2CCNCC2)cc1 | inactive: -18.8%
49 | CCO/N=C(\CC)C1=C(O)CC(c2c(C)cc(C)cc2C)CC1=O (stereo not drawn) | inactive: -19.7% [at 114 µM]
50 | CC(CC(C#N)(c1ccccc1)C(C)C)N(C)C (stereo not drawn) | inactive: -7.75%
51 | COC(=O)c1ccccc1NC(=O)c1cccn(Cc2cccc(Cl)c2)c1=O | inactive: -24.3%
52 | CCCSP(=O)(OCC)SCCC | inactive: -6.13% [at 114 µM]
53 | Clc1ccc(C(OCCN2CCCCC2)c2ccccc2)cc1 (stereo not drawn) | inactive: -14.4%
54 | Cc1ccc(-c2nc(CN3C(=O)CN=C(c4ccccc4Cl)c4cc(Cl)ccc43)c(C)o2)cc1 | inactive: -17.4%
55 | C[N+]1(C)[C@@H]2CC[C@H]1CC(OC(=O)C(CO)c1ccccc1)C2 (stereo partly drawn) | inactive: -10.2%
56 | CC[N+]1(CCOC(=O)C(O)(c2ccccc2)c2ccccc2)CCCCC1 | inactive: -19.7%
57 | O=C(Nc1ccc2c(c1)OCCO2)c1cccn(Cc2ccccc2)c1=O | inactive: -13.8%
58 | Cc1c(Cl)c(=O)oc2cc(OP(=O)(OCCCl)OCCCl)ccc12 | inactive: -15.3%
59 | Cc1cccc(Cn2cccc(C(=O)Nc3nnc(C)s3)c2=O)c1 | inactive: -24.5%
60 | CC(C)C[C@@H]1[C@H](c2ccccc2)OC(=O)N1CCCN1CCCCCC1 | inactive: -14%
61 | O=C1CC(c2ccc(C(F)(F)F)cc2)c2c(c3ccccc3oc2=O)O1 (stereo not drawn) | inactive: -8.34%
62 | Nc1ccccc1 | inactive: -13.8%
63 | O=C(O)COc1ccccc1 | inactive: -12.2%
64 | C=CCc1ccccc1OCCn1c(C2CC(=O)N(Cc3ccc(F)cc3)C2)nc2ccccc21 (stereo not drawn) | inactive: -36.3%
65 | Cc1ccc(NC(=O)CN2C(=O)CN=C(c3ccccc3)c3ccccc32)cc1Cl | inactive: -28%
66 | N#Cc1cc2c(nc1SCC(=O)Nc1cccc(C(F)(F)F)c1)C1CCN2CC1 | inactive: 9.65%
67 | COc1ccc(C(c2c(O)c3ccccc3oc2=O)c2c(C)n(C)n(-c3ccccc3)c2=O)cc1 (stereo not drawn) | inactive: -5.3%
68 | CCSc1nnc(NC(=O)c2cccn(Cc3ccccc3Cl)c2=O)s1 | inactive: 8.64%
69 | CCOc1ccccc1NC(=O)c1cccn(Cc2ccccc2C)c1=O | inactive: 5.88%

Row | Compound | activation
70 | CCC(=O)C(CCN(C)C)(c1ccccc1)c1ccccc1 | inactive: -7.94%
71 | CC(=O)c1cccc(NC(=O)c2cccn(Cc3cccc(C)c3)c2=O)c1 | inactive: -21.2%
72 | C[N+](C)(C)CCOC(=O)C(O)(c1ccccc1)c1ccccc1 | inactive: -6.42%
73 | Clc1ccc(CCC(Cn2ccnc2)Sc2c(Cl)cccc2Cl)cc1 (stereo not drawn) | inactive: -19.6%
74 | Oc1ccc(Cl)cc1 | inactive: -20%
75 | Cc1ccc(Cn2cccc(C(=O)Nc3nc4ccc(C)cc4s3)c2=O)cc1 | inactive: -6.11%
76 | COc1ccc(NC(=O)CN2C(=O)C(C)N=C(c3ccccc3)c3ccccc32)cc1OC (stereo not drawn) | inactive: -11.6%
77 | CC(C)c1c(CN(C)C(C)Cc2ccccc2)n(C)n(-c2ccccc2)c1=O (stereo not drawn) | inactive: -19.3%
78 | COC(=O)C(Cl)C(=O)OC | inactive: -13%
79 | O=S(=O)(c1ccc(Cl)cc1)c1ccc(Cl)cc1 | inactive: -5.29% [at 114 µM]
80 | CCc1ccc(-n2nc(C)c3c2NC(=O)CSC3c2ccccc2C)cc1 (stereo not drawn) | inactive: -5.65%
81 | O=P1(NCCCl)OCCCN1CCCl (stereo not drawn) | inactive: -15.5%
82 | Cc1ccc(OCC(=O)Nc2ccc(Cl)cc2C(=O)c2ccccc2)c(Br)c1 | inactive: -3.5%
83 | O=c1[nH]c2ccccc2n1C1CCNCC1 | inactive: -16.2%
84 | NC(=O)CN1CCCC1=O | inactive: -6.46%
85 | CC(C)NC(C)C | inactive: -13.3%
86 | N[C@@H](Cc1ccc(Oc2cc(I)c(O)c(I)c2)c(I)c1)C(=O)O | inactive: -7.31%
87 | ClCCN1CCCC1 | inactive: -7.69%
88 | Sc1ccccc1Cl | inactive: -11.3%
89 | Cc1cc(C)cc(NC(=O)CN2C(=O)CN=C(c3ccccc3)c3cc(Cl)ccc32)c1 | inactive: -17.8%
90 | C#C[C@]1(O)C=C[C@H]2[C@@H]3CCC4=CC(=O)CC[C@@H]4[C@H]3CC[C@@]21CC | inactive: -3.95%
91 | O=C(COc1ccc(Br)cc1)Nc1ccc(Cl)cc1C(=O)c1ccccc1 | inactive: 11.3%
92 | Oc1ccc([C@H]2CNCc3c2ccc(O)c3O)cc1O | inactive: -8.99%

Row | Compound | activation
93 | CC(C)(C)NCC(O)c1ccccc1Cl (stereo not drawn) | inactive: -8.85%
94 | CN(C(=O)CSc1nc2ccc(NC(=O)COc3ccc(Cl)cc3)cc2s1)c1ccccc1 | inactive: -41.1%
95 | c1cnc2c(c1)ncn2C1CCNCC1 | inactive: -6.88%
96 | COc1cccc(-n2c(/C=C\c3ccc(Cl)cc3)nc3ccccc3c2=O)c1 | inactive: -37.2%
97 | Cc1ccc(C(C)(C)C)c(OCC(=O)Nc2ccc(Cl)cc2C(=O)c2ccccc2)c1 | inactive: -13.7%
98 | Cc1ccc(OCC(=O)N2CCN(Cc3ccc(F)cc3)CC2)cc1 | inactive: -9.38%
99 | CN(C)C(=S)SSC(=S)N(C)C | inactive: -15.6%
100 | CC(=O)OCC1=C(C(=O)O)N2C(=O)[C@@H](N)[C@H]2SC1 | inactive: -13.5% [at 23.8 µM]
101 | O=[N+]([O-])/N=C1\NCCN1Cc1ccc(Cl)nc1 | inactive: -11.6%
102 | COc1cccc(NC(=O)C2CCN(c3nnc(C)c4c(C)n(-c5ccccc5)nc34)CC2)c1 | inactive: -10.6%
103 | Cc1cccc(OCC(=O)N2CCN(Cc3cc(=O)n4nc(-c5ccccc5Cl)sc4n3)CC2)c1 | inactive: -29.9%
104 | C[C@H]1C(=O)O[C@@H]2CCN3CC=C(COC(=O)[C@](C)(O)[C@]1(C)O)[C@H]23 | inactive: -9.28%
105 | CCOc1ccc(C(=O)Nc2cccc(C(=O)OCc3cc(=O)n4nc(C5CC5)sc4n3)c2)cc1 | inactive: -30.7%
106 | COC(=O)c1cncn1C(C)c1ccccc1 (stereo not drawn) | inactive: -1.74%
107 | CC(CC(C(N)=O)(c1ccccc1)c1ccccc1)N(C)C (stereo not drawn) | inactive: -4.53%
108 | CN1C(=O)NC(=O)C(C)(C2=CCCCC2)C1=O (stereo not drawn) | inactive: -16.8%
109 | Cc1ccccc1-c1nn2c(=O)cc(CN3CCN(C(=O)COc4ccccc4Cl)CC3)nc2s1 | inactive: -12.8%
110 | Cc1ccc(-n2c(/C=C\c3ccc(F)c(F)c3)nc3ccccc3c2=O)c(C)c1 | inactive: -15.7%
111 | CN1C(=O)CN=C(c2ccccc2)c2cc([N+](=O)[O-])ccc21 | inactive: -13.9%
112 | CCOc1c(N2CCOCC2)cnn(C)c1=O | inactive: -31.1%
113 | O=C1c2ccccc2C(=O)c2ccccc21 | inactive: -5.95% [at 23.8 µM]
